Laboratory results taken from the antibiotic and cytotoxicity screens of Wong et al. (2023).
The other results are listed elsewhere or left out.

The compounds below were run on HSkMC (human skeletal muscle cells) (assay: cytotoxicity call (relative viability < 0.9)). Details: 10 µM.

SMILES | cytotoxicity call
Oc1cc(O)cc(O)c1 | inactive
O=C(C[C@@H]1CC[C@H]2[C@@H](COC[C@@H](O)CN2Cc2ccccc2F)O1)N[C@H]1CCN(Cc2ccccc2)C1 | inactive
CCCCC(=O)OC1(C(=O)CO)C(C)CC2C3CCC4=CC(=O)C=CC4(C)C3(F)C(O)CC21C (stereo not drawn) | inactive
Cc1cc(C(=O)Nc2cccc3c2O[C@@H](CN(C)C(=O)Nc2ccc4c(c2)OCO4)[C@@H](C)CN([C@H](C)CO)C3=O)n(C)n1 | inactive
CCCNC(=O)c1cc2c(c(-c3cccc(-c4ccc(F)cc4)c3)n1)[C@H](CCO)N([S@@](=O)C(C)(C)C)C2 | inactive
C[C@@H]1CN([C@H](C)CO)C(=O)c2cc(NC(=O)Nc3ccc(C(F)(F)F)cc3)ccc2O[C@@H](C)CCCCO[C@@H]1CN(C)Cc1ccc2c(c1)OCO2 | active
C[C@@H]1CN([C@@H](C)CO)C(=O)c2cc(NC(=O)c3ccncc3)ccc2O[C@@H]1CN(C)S(=O)(=O)c1ccc(F)cc1 | inactive
C[C@@H]1CN([C@H](C)CO)C(=O)c2cc(NC(=O)Nc3ccc(C(F)(F)F)cc3)ccc2O[C@@H](C)CCCCO[C@H]1CN(C)S(=O)(=O)c1cn(C)cn1 | inactive
C[C@H]1CN([C@@H](C)CO)C(=O)Cc2cc(NC(=O)CCCN(C)C)ccc2O[C@@H]1CN(C)S(=O)(=O)c1ccccc1 | inactive
CN1CCN(C(=O)C[C@H]2C[C@@H]3c4cc(NC(=O)c5ccc6c(c5)OCO6)ccc4O[C@@H]3[C@H](CO)O2)CC1 | inactive
C[C@@H]1CN([C@H](C)CO)C(=O)c2cc(C#CCN(C)C)cnc2O[C@H]1CN(C)C(=O)c1cnccn1 | inactive
C[C@H](CO)N1C[C@H](C)[C@@H](CN(C)C(=O)CN2CCOCC2)Oc2ncc(-c3cncnc3)cc2C1=O | inactive
C[C@@H]1CCCCO[C@@H](CN(C)Cc2ccc(Cl)c(Cl)c2)[C@@H](C)CN([C@@H](C)CO)C(=O)c2cc(NC(=O)c3ccccc3)ccc2O1 | inactive
COc1ccc(NC(=O)Nc2cccc3c2O[C@H](CN(C)S(C)(=O)=O)[C@H](C)CN([C@@H](C)CO)C3=O)cc1 | inactive
C[C@H]1CN([C@@H](C)CO)C(=O)c2cc(NC(=O)Nc3ccc(C(F)(F)F)cc3)ccc2O[C@@H]1CN(C)C(=O)Nc1cccc2ccccc12 | inactive
CNC[C@H](O)c1cccc(O)c1 | inactive
Cc1ccc(S(=O)(=O)Nc2ccc3c(c2)C(=O)N([C@@H](C)CO)C[C@H](C)[C@H](CN(C)S(C)(=O)=O)OCCCC[C@@H](C)O3)cc1 | inactive
Cc1ccc(S[C@]2(C(=O)NCC(F)(F)F)CC(=O)N(Cc3cc(C(F)(F)F)cc(C(F)(F)F)c3)[C@@H]2c2ccc(CO)cc2)cc1 | inactive
COc1ccc(NC(=O)Nc2ccc3c(c2)C(=O)N([C@H](C)CO)C[C@@H](C)[C@H](CN(C)Cc2ccc(C(F)(F)F)cc2)OCCCC[C@@H](C)O3)cc1 | inactive
C[C@H](CO)N1C[C@H](C)[C@H](CN(C)C(=O)c2ccccn2)Oc2cc(C#Cc3ccc(F)cc3)ccc2S1(=O)=O | inactive
C[C@@H]1CN([C@H](C)CO)C(=O)c2cccc(NS(=O)(=O)c3ccc(F)cc3)c2O[C@@H]1CN(C)C(=O)Nc1ccc(C(F)(F)F)cc1 | inactive
COc1ccc(S(=O)(=O)N(C)C[C@H]2Oc3c(NC(=O)Nc4cccc5ccccc45)cccc3C(=O)N([C@@H](C)CO)C[C@H]2C)cc1 | inactive
C[C@@H]1CN([C@@H](C)CO)C(=O)c2cc(NS(=O)(=O)c3cn(C)cn3)ccc2O[C@@H]1CN(C)S(=O)(=O)c1cn(C)cn1 | inactive
CCN1CCCC[C@@H]1C(=O)O | inactive
CCC(=O)N1C[C@]2(CN(C2)S(=O)(=O)C)c2c(n(c3cc(ccc23)OC)C)[C@@H]1CO | inactive
C[C@H]1CCCCO[C@@H](CN(C)Cc2ccccc2)[C@@H](C)CN([C@@H](C)CO)C(=O)c2cc(NC(=O)Nc3ccc4c(c3)OCO4)ccc2O1 | inactive
C[C@@H]1CCCCO[C@@H](CN(C)C(=O)Nc2ccc(C(F)(F)F)cc2)[C@H](C)CN([C@H](C)CO)C(=O)c2cc(NS(=O)(=O)c3ccccc3)ccc2O1 | inactive
COc1ccc(S(=O)(=O)Nc2ccc3c(c2)C(=O)N([C@H](C)CO)C[C@H](C)[C@@H](CN(C)S(=O)(=O)c2ccc(F)cc2)O3)cc1 | inactive
C[C@@H]1C[C@H]1C(=O)O | inactive

What follows are compounds tested on HepG2 (assay: cytotoxicity call (relative viability < 0.9)). Details: 10 µM.

SMILES | cytotoxicity call
CC(C)NC(=O)N(C)C[C@@H]1OCCCC[C@@H](C)Oc2ccc(NS(=O)(=O)c3cn(C)cn3)cc2C(=O)N([C@H](C)CO)C[C@H]1C | inactive
Cc1ccc(S(=O)(=O)Nc2ccc3c(c2)CC(=O)N([C@H](C)CO)C[C@H](C)[C@H](CN(C)Cc2ccc(Oc4ccccc4)cc2)O3)cc1 | inactive
COCCN1C[C@H]2CN(Cc3cnn(C)c3)C[C@H]2C1=O | inactive
C[C@@H]1CN([C@H](C)CO)C(=O)c2cc(C#Cc3ccccc3)cnc2O[C@H]1CN(C)S(=O)(=O)c1ccccc1F | inactive
COc1ccc(NC(=O)Nc2ccc3c(c2)C(=O)N([C@@H](C)CO)C[C@@H](C)[C@H](CN(C)Cc2ccncc2)OCCCC[C@H](C)O3)cc1 | inactive
C[C@@H]1CN([C@@H](C)CO)C(=O)c2cc(NC(=O)Nc3ccccc3)ccc2O[C@H]1CN(C)CC1CCCCC1 | inactive
COCC(=O)Nc1ccc2c(c1)OC[C@@H](C)N(C(=O)Cc1ccccn1)C[C@@H](C)[C@@H](OC)CN(C)C2=O | inactive
C[C@@H]1CCN(C(=O)[C@H](CCCNC(=N)N)NS(=O)(=O)c2cccc3c2NC[C@H](C)C3)[C@@H](C(=O)O)C1 | inactive
Cc1ccc(S(=O)(=O)Nc2cccc3c2O[C@@H](CN(C)S(=O)(=O)c2c(C)noc2C)[C@@H](C)CN([C@H](C)CO)C3=O)cc1 | inactive
O=C(C[C@@H]1CC[C@H]2[C@@H](COC[C@H](O)CN2S(=O)(=O)c2ccc(F)cc2)O1)N[C@@H]1CCN(Cc2ccccc2)C1 | inactive
CO[C@H]1CN(C)C(=O)c2ccc(NC(=O)NC(C)C)cc2OC[C@@H](C)N(Cc2ccc(-c3ccccn3)cc2)C[C@@H]1C | inactive
Oc1cc(O)cc(O)c1 | inactive
O=C(C[C@@H]1CC[C@H]2[C@@H](COC[C@@H](O)CN2Cc2ccccc2F)O1)N[C@H]1CCN(Cc2ccccc2)C1 | inactive
CCCCC(=O)OC1(C(=O)CO)C(C)CC2C3CCC4=CC(=O)C=CC4(C)C3(F)C(O)CC21C (stereo not drawn) | inactive
Cc1cc(C(=O)Nc2cccc3c2O[C@@H](CN(C)C(=O)Nc2ccc4c(c2)OCO4)[C@@H](C)CN([C@H](C)CO)C3=O)n(C)n1 | inactive
CCCNC(=O)c1cc2c(c(-c3cccc(-c4ccc(F)cc4)c3)n1)[C@H](CCO)N([S@@](=O)C(C)(C)C)C2 | inactive
C[C@@H]1CN([C@H](C)CO)C(=O)c2cc(NC(=O)Nc3ccc(C(F)(F)F)cc3)ccc2O[C@@H](C)CCCCO[C@@H]1CN(C)Cc1ccc2c(c1)OCO2 | active

SMILES | cytotoxicity call
C[C@@H]1CN([C@@H](C)CO)C(=O)c2cc(NC(=O)c3ccncc3)ccc2O[C@@H]1CN(C)S(=O)(=O)c1ccc(F)cc1 | inactive
C[C@@H]1CN([C@H](C)CO)C(=O)c2cc(NC(=O)Nc3ccc(C(F)(F)F)cc3)ccc2O[C@@H](C)CCCCO[C@H]1CN(C)S(=O)(=O)c1cn(C)cn1 | inactive
C[C@H]1CN([C@@H](C)CO)C(=O)Cc2cc(NC(=O)CCCN(C)C)ccc2O[C@@H]1CN(C)S(=O)(=O)c1ccccc1 | inactive
CN1CCN(C(=O)C[C@H]2C[C@@H]3c4cc(NC(=O)c5ccc6c(c5)OCO6)ccc4O[C@@H]3[C@H](CO)O2)CC1 | inactive
C[C@@H]1CN([C@H](C)CO)C(=O)c2cc(C#CCN(C)C)cnc2O[C@H]1CN(C)C(=O)c1cnccn1 | inactive
C[C@H](CO)N1C[C@H](C)[C@@H](CN(C)C(=O)CN2CCOCC2)Oc2ncc(-c3cncnc3)cc2C1=O | inactive
C[C@@H]1CCCCO[C@@H](CN(C)Cc2ccc(Cl)c(Cl)c2)[C@@H](C)CN([C@@H](C)CO)C(=O)c2cc(NC(=O)c3ccccc3)ccc2O1 | inactive
COc1ccc(NC(=O)Nc2cccc3c2O[C@H](CN(C)S(C)(=O)=O)[C@H](C)CN([C@@H](C)CO)C3=O)cc1 | inactive
C[C@H]1CN([C@@H](C)CO)C(=O)c2cc(NC(=O)Nc3ccc(C(F)(F)F)cc3)ccc2O[C@@H]1CN(C)C(=O)Nc1cccc2ccccc12 | inactive
CNC[C@H](O)c1cccc(O)c1 | inactive
Cc1ccc(S(=O)(=O)Nc2ccc3c(c2)C(=O)N([C@@H](C)CO)C[C@H](C)[C@H](CN(C)S(C)(=O)=O)OCCCC[C@@H](C)O3)cc1 | inactive
Cc1ccc(S[C@]2(C(=O)NCC(F)(F)F)CC(=O)N(Cc3cc(C(F)(F)F)cc(C(F)(F)F)c3)[C@@H]2c2ccc(CO)cc2)cc1 | inactive
COc1ccc(NC(=O)Nc2ccc3c(c2)C(=O)N([C@H](C)CO)C[C@@H](C)[C@H](CN(C)Cc2ccc(C(F)(F)F)cc2)OCCCC[C@@H](C)O3)cc1 | active
C[C@H](CO)N1C[C@H](C)[C@H](CN(C)C(=O)c2ccccn2)Oc2cc(C#Cc3ccc(F)cc3)ccc2S1(=O)=O | inactive
C[C@@H]1CN([C@H](C)CO)C(=O)c2cccc(NS(=O)(=O)c3ccc(F)cc3)c2O[C@@H]1CN(C)C(=O)Nc1ccc(C(F)(F)F)cc1 | inactive
COc1ccc(S(=O)(=O)N(C)C[C@H]2Oc3c(NC(=O)Nc4cccc5ccccc45)cccc3C(=O)N([C@@H](C)CO)C[C@H]2C)cc1 | inactive
C[C@@H]1CN([C@@H](C)CO)C(=O)c2cc(NS(=O)(=O)c3cn(C)cn3)ccc2O[C@@H]1CN(C)S(=O)(=O)c1cn(C)cn1 | inactive
